# Article PMC8144412
# Protein sequences, listed by entry. Tags and fused reporters are not part of them.
# UniProt Q8N122: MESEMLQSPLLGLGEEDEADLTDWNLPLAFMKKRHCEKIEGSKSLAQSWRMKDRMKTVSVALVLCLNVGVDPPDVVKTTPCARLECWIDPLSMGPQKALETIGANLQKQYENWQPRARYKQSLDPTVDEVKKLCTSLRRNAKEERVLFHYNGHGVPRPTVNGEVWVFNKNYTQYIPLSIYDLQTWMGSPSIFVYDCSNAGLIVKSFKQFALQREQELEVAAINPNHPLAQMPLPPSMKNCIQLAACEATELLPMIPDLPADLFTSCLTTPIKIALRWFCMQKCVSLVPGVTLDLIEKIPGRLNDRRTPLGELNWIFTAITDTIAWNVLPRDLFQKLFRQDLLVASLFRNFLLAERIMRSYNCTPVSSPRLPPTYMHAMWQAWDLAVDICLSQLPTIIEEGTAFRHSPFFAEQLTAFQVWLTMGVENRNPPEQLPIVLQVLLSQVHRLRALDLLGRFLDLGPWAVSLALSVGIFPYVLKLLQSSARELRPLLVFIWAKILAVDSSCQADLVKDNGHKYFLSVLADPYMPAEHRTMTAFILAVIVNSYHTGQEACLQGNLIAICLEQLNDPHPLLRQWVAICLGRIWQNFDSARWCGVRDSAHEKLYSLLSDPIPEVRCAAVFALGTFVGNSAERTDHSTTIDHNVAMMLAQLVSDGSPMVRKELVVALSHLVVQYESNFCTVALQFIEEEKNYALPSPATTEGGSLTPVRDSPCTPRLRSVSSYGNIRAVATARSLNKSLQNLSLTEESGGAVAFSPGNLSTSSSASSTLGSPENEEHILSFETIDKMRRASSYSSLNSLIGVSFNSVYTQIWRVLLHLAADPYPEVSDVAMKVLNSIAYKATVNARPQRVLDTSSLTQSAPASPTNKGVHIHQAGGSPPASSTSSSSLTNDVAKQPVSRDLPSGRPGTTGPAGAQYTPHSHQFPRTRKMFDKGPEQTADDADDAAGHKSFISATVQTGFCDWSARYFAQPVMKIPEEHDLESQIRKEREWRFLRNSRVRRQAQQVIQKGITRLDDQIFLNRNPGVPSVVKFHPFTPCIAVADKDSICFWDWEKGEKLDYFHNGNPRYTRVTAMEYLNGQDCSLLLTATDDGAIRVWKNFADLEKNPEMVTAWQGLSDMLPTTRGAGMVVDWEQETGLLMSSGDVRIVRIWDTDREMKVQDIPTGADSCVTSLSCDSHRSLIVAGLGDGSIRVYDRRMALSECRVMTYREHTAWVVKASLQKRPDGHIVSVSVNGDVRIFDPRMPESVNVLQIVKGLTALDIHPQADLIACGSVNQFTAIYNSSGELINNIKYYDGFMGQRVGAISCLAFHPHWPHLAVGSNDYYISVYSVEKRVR
# UniProt Q16531: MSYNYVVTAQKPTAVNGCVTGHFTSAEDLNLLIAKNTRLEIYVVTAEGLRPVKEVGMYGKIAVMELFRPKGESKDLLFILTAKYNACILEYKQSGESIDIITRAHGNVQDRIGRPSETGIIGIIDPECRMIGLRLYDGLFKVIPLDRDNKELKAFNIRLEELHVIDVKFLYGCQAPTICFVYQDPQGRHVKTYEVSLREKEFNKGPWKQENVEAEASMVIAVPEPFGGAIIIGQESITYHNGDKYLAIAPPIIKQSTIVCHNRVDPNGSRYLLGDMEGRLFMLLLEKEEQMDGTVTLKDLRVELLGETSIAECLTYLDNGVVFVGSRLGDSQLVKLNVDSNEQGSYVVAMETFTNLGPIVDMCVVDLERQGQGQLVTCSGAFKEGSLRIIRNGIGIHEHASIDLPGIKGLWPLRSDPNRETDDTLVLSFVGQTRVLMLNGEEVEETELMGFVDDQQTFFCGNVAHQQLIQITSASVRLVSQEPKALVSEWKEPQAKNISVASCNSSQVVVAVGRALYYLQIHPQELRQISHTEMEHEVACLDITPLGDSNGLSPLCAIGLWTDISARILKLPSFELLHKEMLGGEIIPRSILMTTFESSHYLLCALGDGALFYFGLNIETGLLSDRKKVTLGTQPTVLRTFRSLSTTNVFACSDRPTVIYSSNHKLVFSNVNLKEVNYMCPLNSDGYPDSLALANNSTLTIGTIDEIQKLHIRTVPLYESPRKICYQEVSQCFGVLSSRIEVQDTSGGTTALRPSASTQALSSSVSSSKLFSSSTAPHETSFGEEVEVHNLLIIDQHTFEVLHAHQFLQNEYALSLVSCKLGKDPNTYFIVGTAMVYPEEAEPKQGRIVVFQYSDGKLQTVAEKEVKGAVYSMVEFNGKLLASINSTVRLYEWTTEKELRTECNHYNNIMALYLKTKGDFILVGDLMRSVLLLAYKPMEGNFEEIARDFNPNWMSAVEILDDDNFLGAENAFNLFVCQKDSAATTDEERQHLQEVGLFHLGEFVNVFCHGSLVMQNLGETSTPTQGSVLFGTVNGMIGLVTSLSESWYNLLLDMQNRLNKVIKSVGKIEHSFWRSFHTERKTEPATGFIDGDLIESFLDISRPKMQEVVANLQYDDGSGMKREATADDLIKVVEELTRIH
# UniProt Q8K4Q0: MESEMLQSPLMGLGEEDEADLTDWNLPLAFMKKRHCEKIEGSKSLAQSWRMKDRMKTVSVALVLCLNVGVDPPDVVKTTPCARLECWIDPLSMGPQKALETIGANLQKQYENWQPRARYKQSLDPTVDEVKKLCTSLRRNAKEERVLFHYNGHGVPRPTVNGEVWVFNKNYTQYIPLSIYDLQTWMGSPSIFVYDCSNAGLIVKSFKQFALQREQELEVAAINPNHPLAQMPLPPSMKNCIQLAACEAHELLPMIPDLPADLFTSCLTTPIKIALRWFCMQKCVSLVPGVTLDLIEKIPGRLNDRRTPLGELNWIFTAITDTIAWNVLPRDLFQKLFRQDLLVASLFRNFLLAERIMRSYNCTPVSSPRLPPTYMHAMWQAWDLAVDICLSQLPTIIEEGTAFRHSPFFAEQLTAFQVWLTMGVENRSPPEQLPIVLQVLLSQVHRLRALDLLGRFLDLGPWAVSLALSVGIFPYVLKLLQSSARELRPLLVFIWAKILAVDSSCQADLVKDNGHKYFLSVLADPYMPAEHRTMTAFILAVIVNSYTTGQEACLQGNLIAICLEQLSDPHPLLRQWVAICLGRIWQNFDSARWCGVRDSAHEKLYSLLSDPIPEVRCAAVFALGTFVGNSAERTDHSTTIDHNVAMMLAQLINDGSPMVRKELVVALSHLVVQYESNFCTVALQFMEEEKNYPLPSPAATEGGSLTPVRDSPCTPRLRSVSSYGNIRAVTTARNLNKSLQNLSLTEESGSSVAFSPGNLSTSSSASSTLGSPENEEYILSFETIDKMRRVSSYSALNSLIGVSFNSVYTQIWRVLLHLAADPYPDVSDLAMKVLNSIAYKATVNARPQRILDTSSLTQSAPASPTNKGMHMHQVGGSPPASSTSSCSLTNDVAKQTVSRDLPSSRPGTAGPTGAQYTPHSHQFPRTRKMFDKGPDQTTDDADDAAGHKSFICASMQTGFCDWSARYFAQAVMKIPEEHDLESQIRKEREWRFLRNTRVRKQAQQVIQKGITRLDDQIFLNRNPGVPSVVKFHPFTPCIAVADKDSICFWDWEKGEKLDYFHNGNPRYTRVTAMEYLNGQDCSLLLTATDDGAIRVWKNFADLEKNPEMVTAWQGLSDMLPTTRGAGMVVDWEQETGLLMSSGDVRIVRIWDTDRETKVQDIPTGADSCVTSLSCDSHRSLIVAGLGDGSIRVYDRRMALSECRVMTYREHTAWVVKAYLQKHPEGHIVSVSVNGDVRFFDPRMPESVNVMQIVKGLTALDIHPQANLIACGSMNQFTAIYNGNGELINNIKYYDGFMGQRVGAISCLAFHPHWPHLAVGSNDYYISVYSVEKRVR
# No constants are given. Whether binding was seen depends on the method and setting. Binding seen in cells or lysates may run through a third protein. Some entries that bind do so weakly or less than the wild type. For part of these data: Tags and fused reporters may be left off the sequences shown.
# B1: HA-PPDPF (protein, UniProt Q9H3Y8 1-114)
# chain: MAAIPSSGSLVATHDYYRRRLGSTSSNSSCSSTECPGEAIPHPPGLPKADPGHWWASFFFGKSTLPFMATVLESAEHSEPPQASSSMTACGLARDAPRKQPGGQSSTASAGPPS
# B2: endogenous PPDPF (mouse primary hepatocytes) (protein, UniProt Q9CR37 1-115)
# chain: MAAIPSSGSLVATHDYYRRRLGSSSSSSSGGSAEYPGDAVLQSPGLPKADPGHWWASFFFGKSTLPFMTTVLESPERSAESPQVSRSPMTCGLTPETMKQQPVIHSGQTNPRDLS
# B3: PPDPF mut (overexpressed in 293T cells, tag not stated) (protein, UniProt Q9H3Y8 1-114)
# chain: MAAIPSSGSLVATHDYYRRRLGSTSSNSSCSSTECPGEAIPHPPGLPKADAAAAAAAAAAAAAALPFMATVLESAEHSEPPQASSSMTACGLARDAPRKQPGGQSSTASAGPPS
# Experiments:
# HA-PPDPF (human) [1] = target: T1, HA-PPDPF (human) (UniProt Q9H3Y8); experiment: co-IP; 293T cells co-transfected with Flag-DDB1 and HA-PPDPF; immunoprecipitation of Flag-DDB1 or of HA-PPDPF
# T1 sequence: B1 chain
# [2] = target: Raptor (293T and HepG2 cells, precipitated with Raptor antibody) (human (endogenous in 293T and HepG2)) (UniProt Q8N122); experiment: co-IP; control and PPDPF-overexpressing HepG2 cells, resting or treated with PA; immunoprecipitation with Raptor antibody
# [3] = target: Raptor (293T and HepG2 cells, precipitated with Raptor antibody) (human (endogenous in 293T and HepG2)) (UniProt Q8N122); experiment: co-IP; 293T cells with or without PPDPF overexpression; immunoprecipitation with Raptor antibody
# HA-PPDPF (human) [4] = target: T1, HA-PPDPF (human); experiment: co-IP; 293T cells co-transfected with Flag-Raptor and HA-PPDPF; each in turn precipitated
# GST-PPDPF (human) = target: T2, GST-PPDPF (human) (UniProt Q9H3Y8); experiment: pull-down; purified GST fusion protein incubated with lysate of cultured cells overnight at 4 °C, then GST beads 1 h at 4 °C, western blotting; only the target purified
# T2 sequence: B1 chain
# GST-PPDPF mut (human) = target: T3, GST-PPDPF mut (human) (UniProt Q9H3Y8); experiment: as above
# T3 sequence: B3 chain
# [5] = target: T4, GST-fused segment 51-64aa of PPDPF (human) (UniProt Q9H3Y8); experiment: as above
# T4 sequence: PGHWWASFFFGKST
# Flag-Raptor (human) = Flag-Raptor (human) (UniProt Q8N122); experiment: co-IP; 293T cells co-transfected with Flag-Raptor and HA-PPDPF; each in turn precipitated
# Flag-DDB1 (human) = Flag-DDB1 (human) (UniProt Q16531); experiment: co-IP; 293T cells co-transfected with Flag-DDB1 and HA-PPDPF; immunoprecipitation of Flag-DDB1 or of HA-PPDPF
# [6] = target: endogenous Raptor (mouse primary hepatocytes and liver) (mouse (endogenous in primary hepatocytes and liver)) (UniProt Q8K4Q0); experiment: co-IP; endogenous PPDPF and Raptor in primary hepatocytes
# HA-Raptor (human) = HA-Raptor (human) (UniProt Q8N122); experiment: co-IP; 293T cells transfected with control vector, PPDPF WT or PPDPF mut and HA-Raptor plasmid; after 48 h
molecule,measurement,setting,value
Flag-DDB1 (from UniProt Q16531 1-1140),binding,HA-PPDPF (human) [1],binds
DDB1 (293T and HepG2 cells) (from UniProt Q16531 1-1140),binding,[2],binds
same,binding,[3],binds
Flag-Raptor (from UniProt Q8N122 1-1335),binding,HA-PPDPF (human) [4],binds
DDB1 (in the lysate used for GST pull-down) (from UniProt Q16531 1-1140),binding,GST-PPDPF (human),binds
Raptor (in the lysate used for GST pull-down) (from UniProt Q8N122 1-1335),binding,GST-PPDPF (human),binds
same,binding,GST-PPDPF mut (human),no binding
same,binding,[5],binds
B1,binding,Flag-Raptor (human),binds
same,binding,Flag-DDB1 (human),binds
B2,binding,[6],binds
B3,binding,HA-Raptor (human),no binding
